In all, about 33,000 sequences were measured (“E-score (-0.5 to 0.5)”: median about -0.011, highest 2% from about 0.28 on). The list shows a part of the results.
What follows are sequences tested against T1, Gcr1 (UniProt P07261) (assay: PBM E-score (8-mer binding enrichment) (E-score (-0.5 to 0.5)); higher = stronger / more preferred TF binding; most listed sequences are background and not binding sites). Conditions: protein concentration: 100 nM; construct: GST-full length.
T1 sequence: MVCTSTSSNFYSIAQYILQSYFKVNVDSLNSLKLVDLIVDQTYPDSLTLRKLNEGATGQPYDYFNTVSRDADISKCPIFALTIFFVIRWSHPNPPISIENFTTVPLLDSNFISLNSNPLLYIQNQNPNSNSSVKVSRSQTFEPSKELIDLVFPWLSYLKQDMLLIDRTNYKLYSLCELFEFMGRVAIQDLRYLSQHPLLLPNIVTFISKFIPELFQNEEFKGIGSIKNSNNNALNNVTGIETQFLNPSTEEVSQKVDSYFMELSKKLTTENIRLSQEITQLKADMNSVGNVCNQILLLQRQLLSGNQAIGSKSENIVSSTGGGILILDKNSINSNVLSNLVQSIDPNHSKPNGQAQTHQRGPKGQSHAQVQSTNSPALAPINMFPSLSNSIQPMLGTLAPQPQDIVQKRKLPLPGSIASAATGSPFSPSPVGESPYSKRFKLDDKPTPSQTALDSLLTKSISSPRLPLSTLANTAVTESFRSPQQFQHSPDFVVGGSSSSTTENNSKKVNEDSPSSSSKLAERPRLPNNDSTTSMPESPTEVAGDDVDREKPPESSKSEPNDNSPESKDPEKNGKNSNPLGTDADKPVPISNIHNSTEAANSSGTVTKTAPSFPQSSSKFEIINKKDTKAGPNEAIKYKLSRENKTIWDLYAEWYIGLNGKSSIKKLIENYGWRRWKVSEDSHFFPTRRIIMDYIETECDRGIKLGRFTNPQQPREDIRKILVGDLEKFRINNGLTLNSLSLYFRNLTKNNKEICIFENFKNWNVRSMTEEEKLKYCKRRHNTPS
Procedure, shortened: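 PURExpress in vitro transcription/translation supplied GST-tagged yeast transcription factors, either full-length or DNA-binding domain. Applied at about 100-200 nM to universal all-10-mer Agilent arrays double-stranded by primer extension, the bound protein was detected with fluorescent anti-GST. E-scores, modified Wilcoxon-Mann-Whitney statistics, were given by the Universal PBM Analysis Suite to ungapped eight-base words pooled with their reverse complements after masliner normalisation.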

Row | Sequence | PBM E-score
1 | CACCTTGC | -0.0454
2 | TGGCTACA | 0.065
3 | AAGGGAGA | -0.266
4 | CAAACAAA | 0.0175
5 | AAGTGCTA | -0.0529
6 | GGTTGGAC | -0.111
7 | CGACGGTC | -0.344
8 | CAAACAGC | -0.0108
9 | AGCGTCGA | 0.0269
10 | AATGGCCA | -0.157
11 | AGCTTTCA | -0.0144
12 | ACCCCGAT | 0.0265
13 | AATCCGCA | 0.224
14 | AAGGTATC | 0.158
15 | CTGGCGTA | -0.138
16 | CTATGGTC | -0.0106
17 | AGGGCCTA | -0.186
18 | CTGGCATC | 0.304
19 | ACGCTTTC | -0.0885
20 | TCCGGTCA | -0.0853
21 | AATGTGCT | -0.128
22 | ATTGTACG | -0.0743
23 | GTCCAGTA | 0.142
24 | AACACAAT | -0.0322
25 | GAAACTAA | -0.00464

Row | Sequence | PBM E-score
26 | GCTATGAA | -0.062
27 | ATACACGC | 0.158
28 | ATCGGGTG | 0.117
29 | CTGCCCCA | 0.00254
30 | GCAACACC | -0.0293
31 | ATTTTTAA | 0.14
32 | CAAAGGAC | -0.127
33 | CGATGGTA | -0.0911
34 | AGTCAAGC | -0.22
35 | ACGCGCCA | 0.196
36 | AGCTACGG | 0.00843
37 | TCGCGAGA | -0.018
38 | GACGATGC | 0.227
39 | AATAACGG | 0.00207
40 | CCACCCAA | -0.0626
41 | GGTGGCAC | -0.109
42 | CTCCATCA | -0.0491
43 | GCCGTTAC | 0.0706
44 | CTCCTGTC | 0.148
45 | ATAAGGAG | 0.0626
46 | CAACAAGG | -0.161
47 | CTGTGCAC | -0.149
48 | AAAAATGA | 0.13
49 | CAACTATC | -0.137
50 | GCCACAGA | -0.152

Row | Sequence | PBM E-score
51 | CGAAACCG | 0.0372
52 | AATGGGCA | 0.103
53 | AGATCGGG | 0.0723
54 | GCTCTAAA | 0.189
55 | ATAAAAGA | 0.154
56 | CCTATTCC | 0.00421
57 | GCGTCGGA | -0.0151
58 | CTACGATA | 0.151
59 | GTGGCGCA | -0.151
60 | ATCACGTC | -0.147
61 | AGACTGTA | -0.0498
62 | AATGGTGG | -0.00912
63 | ACTGTCGG | -0.0468
64 | AATGAAAA | 0.106
65 | TCCTGAAA | 0.0632
66 | AGGTTATC | -0.0158
67 | CCGTCCAC | 0.016
68 | CGGTTTAG | -0.0328
69 | AGCAGAAT | -0.032
70 | AGTCGGAA | 0.159
71 | TCCAGCAA | -0.0847
72 | GGGTGACA | -0.0192
73 | TAAACACA | 0.0289
74 | AGGATCCG | 0.0808
75 | ATGTCAAC | -0.125

Row | Sequence | PBM E-score
76 | AATGATTG | -0.0386
77 | AGGTTCGA | -0.226
78 | ACAAAGCC | -0.0591
79 | ACGCAGAT | 0.151
80 | CTCCTTCC | -0.0893
81 | ATCTGGGA | 0.191
82 | CAAGGGCG | -0.109
83 | CGCGCATC | 0.252
84 | GACGGACC | -0.00011
85 | GCTATGGA | -0.0422
86 | AGGGAACT | -0.104
87 | ATGAATAA | 0.0631
88 | ACAGTATC | -0.0479
89 | AGCTAACT | 0.0253
90 | ACGCTTGG | -0.214
91 | CTGCTTGA | 0.0481
92 | AGATAGAC | -0.273
93 | GAATCAGA | 0.0639
94 | ATATATGC | 0.0854
95 | CAAGATTC | 0.122
96 | ACTGCGCT | -0.0318
97 | TCGTACCA | 0.126
98 | AATGTGAA | -0.108
99 | ACGGATTA | -0.168
100 | ATATCATC | 0.0387

Row | Sequence | PBM E-score
101 | CTAAACCA | -0.00416
102 | AACCTCAC | 0.0098
103 | GCCAAGCC | -0.0285
104 | CCACCACG | 0.0648
105 | CCAGTCTC | 0.0261
106 | AGATAGTG | 0.13
107 | GCTACCAA | 0.179
108 | GCCGCGCC | 0.00673
109 | ACTGGAGG | 0.206
110 | ATGTTCCA | 0.15
111 | AGGCTTCA | -0.0957
112 | ACTCTGGA | 0.247
113 | CTGAATTC | 0.153
114 | CCTAGAAG | -0.0773
115 | ATAGGGAC | 0.00435
116 | GCCTCGAA | 0.00437
117 | TAGGCCTA | -0.0186
118 | AAAGCCTG | -0.242
119 | GCGTTGCA | -0.192
120 | GATCAACC | -0.11
121 | GTTCTTTA | -0.033
122 | TAAGAACA | 0.0714
123 | ACACAGTG | -0.0742
124 | GGCAAGAA | -0.14
125 | GGGGCACA | -0.0447

Row | Sequence | PBM E-score
126 | GAGCAGGA | -0.147
127 | GATACGCA | 0.247
128 | ACCCTGAA | 0.192
129 | AGCAACGA | -0.145
130 | ATTCATGC | 0.0643
131 | GTTCGCTA | 0.00019
132 | TCTAATAA | 0.0933
133 | ACGTATGC | -0.147
134 | AGCCACCA | 0.143
135 | ATATATAG | 0.111
136 | AAGGGTGG | 0.00047
137 | ATTGAGGA | 0.066
138 | AAGCATGA | -0.0745
139 | CTTACCGA | -0.0397
140 | CCAGGGGA | 0.173
141 | TCGCGACA | -0.316
142 | TCGTTTAA | -0.0223
143 | AGAATTTA | -0.062
144 | CTGGGATA | 0.0881
145 | AATGATGA | -0.029
146 | TCGCTCAA | 0.0296
147 | GGCGATAC | 0.00202
148 | TCGCAAAA | 0.134
149 | ATGGTAAT | -0.0376
150 | AGATCGTA | -0.0375

Row | Sequence | PBM E-score
151 | AGCCACGG | 0.0122
152 | AACCATGG | -0.0354
153 | ATGTACAT | -0.23
154 | TTGGACAA | 0.0231
155 | CGTACCAG | 0.125
156 | AGCCGTCA | 0.0949
157 | ACTGAAGG | -0.152
158 | AAACCTGA | 0.112
159 | GCGCTTGA | -0.15
160 | CTAGGTGA | -0.196
161 | CAGTGCAG | 0.167
162 | CGTAGCCA | 0.106
163 | ACGCACGC | 0.031
164 | GAATCGTC | 0.089
165 | CGGTTGGC | 0.0698
166 | CTTGGTAA | -0.133
167 | GGCAGAAC | -0.0477
168 | AGTCTAGC | 0.0246
169 | GACATCCC | 0.0126
170 | AATATAAA | 0.0905
171 | ATATTACA | 0.191
172 | CCAGAGGG | -0.166

From the supplement of paper PMC3334620
